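1) Cells in 96-well plates. 2) Compound, 48 h, 5 concentrations. 3) Linear interpolation between surrounding doses. 4) Unreached endpoint = highest concentration. Here, GI50 denotes the concentration required for 50% inhibition of growth. TGI marks complete inhibition of growth.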
System: NCI-H322M lung
Experiment: inhibition of tumour cell growth, NCI panel, 48 h

Structure (SMILES) | GI50 [µM] | TGI [µM]
COC(=O)C[Se]C(=O)Cc1c(C)n(C(=O)c2ccc(Cl)cc2)c2ccc(OC)cc12 | 2.51 | 12.3
Cc1ccc(S(=O)(=O)NCCCNc2nc(Nc3ccc(N4CCN(C)CC4)cc3)nc3ccsc23)cc1 | 10.9 | 24.3

Reference: PubChem BioAssay (NCI)
